Experimental data as given in PMC4336329 (PLoS ONE, 2015).
Among all 310,000 compounds or so, about 14,000 (4.5%) showed an effect of 50% or more. Effects have a minus sign here. This is one part of the list.

target: human ether-à-go-go-related gene (hERG) potassium channel (human, UniProt Q12809); experiment: primary screen, population patch clamp on CHO cells stably expressing hERG
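Further: peak tail current of the secondary pulse compared with the same well before compound.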

human ether-à-go-go-related gene (hERG) potassium channel, sequence (Q12809 whole entry, looked up): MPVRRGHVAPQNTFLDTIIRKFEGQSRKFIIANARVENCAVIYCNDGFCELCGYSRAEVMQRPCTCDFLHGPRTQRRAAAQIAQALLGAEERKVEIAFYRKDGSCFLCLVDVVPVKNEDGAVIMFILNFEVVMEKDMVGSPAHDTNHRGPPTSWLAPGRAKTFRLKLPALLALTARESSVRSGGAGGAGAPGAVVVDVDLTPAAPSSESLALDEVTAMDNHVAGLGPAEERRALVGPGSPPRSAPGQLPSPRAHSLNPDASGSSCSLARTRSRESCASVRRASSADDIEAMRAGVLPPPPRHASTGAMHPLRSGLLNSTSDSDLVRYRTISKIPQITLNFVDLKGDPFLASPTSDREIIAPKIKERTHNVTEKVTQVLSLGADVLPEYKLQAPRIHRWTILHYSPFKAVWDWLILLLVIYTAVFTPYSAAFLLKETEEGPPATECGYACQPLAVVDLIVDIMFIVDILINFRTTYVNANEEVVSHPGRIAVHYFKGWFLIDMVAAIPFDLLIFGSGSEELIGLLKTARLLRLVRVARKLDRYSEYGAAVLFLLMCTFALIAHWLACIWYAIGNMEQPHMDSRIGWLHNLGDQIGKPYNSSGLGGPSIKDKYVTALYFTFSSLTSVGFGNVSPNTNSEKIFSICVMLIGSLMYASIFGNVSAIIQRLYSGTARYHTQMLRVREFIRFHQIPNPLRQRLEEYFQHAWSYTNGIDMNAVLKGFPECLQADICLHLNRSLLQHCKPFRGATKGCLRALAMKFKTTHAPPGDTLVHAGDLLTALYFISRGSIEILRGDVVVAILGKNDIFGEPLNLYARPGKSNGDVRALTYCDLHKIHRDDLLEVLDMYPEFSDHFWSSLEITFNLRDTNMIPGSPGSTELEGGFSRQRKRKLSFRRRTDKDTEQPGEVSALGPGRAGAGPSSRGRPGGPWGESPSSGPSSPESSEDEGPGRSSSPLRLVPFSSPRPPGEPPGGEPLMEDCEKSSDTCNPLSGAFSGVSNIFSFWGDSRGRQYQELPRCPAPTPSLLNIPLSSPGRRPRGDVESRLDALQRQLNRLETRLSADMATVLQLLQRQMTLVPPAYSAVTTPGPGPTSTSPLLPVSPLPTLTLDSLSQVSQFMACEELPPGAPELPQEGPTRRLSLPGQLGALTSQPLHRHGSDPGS

Compound | hERG current change (%, negative = inhibition) at 10uM
CCCCCCCCOC(=O)C(NC(=O)CCC(=O)Nc1ccc(S(N)(=O)=O)cc1)C(O)c1ccccc1 (stereo not shown) | 16.4%
Cc1ccccc1NC(=O)NCC1CCCO1 (stereo not shown) | 10.3%
N=C1C(c2nc(-c3ccc(Cl)cc3)cs2)=C(O)CN1NC(=O)c1ccc(O)cc1 | 4.02%
Cc1ccc(S(=O)(=O)N2CCCCC2)cc1NC(=O)c1ccc2ccccc2n1 | 9.01%
Cc1nc2ccc(NC(=O)Cc3cccc(F)c3)cc2s1 | 2.56%
CCCOc1ccc(NC(=O)C2CC(=O)N(C(C)C)C2)cc1 (stereo not shown) | 7.03%
CC(C)(CO)NC(=O)C(c1ccccc1)c1ccccc1 | 2.03%
COc1ccc(N2CCN(S(=O)(=O)CCNC(=O)COc3ccccc3)CC2)cc1 | -0.949%
Nn1c(SCc2ccccc2F)nnc1-c1ccncc1 | 1.68%
COc1ccc(C(C)NC(=O)c2ccc(Cl)cc2)cc1OC (stereo not shown) | 0.0898%
CCOc1ccc(-c2nnc(-c3ccccc3)o2)cc1 | 10.1%
Cc1cccc2cc(CN(CCN3CCOCC3)C(=O)Nc3ccccc3F)c(=O)[nH]c12 | -20.6%
O=c1oc2ccccc2c2nccnc12 | 13.8%
COc1ccc(Nc2nc3ccccc3n3cnnc23)cc1Cl | 19.5%
COc1ccc(NC(=O)C(=O)N/N=C/c2cc(C)n(-c3cccc(Cl)c3Cl)c2C)c(OC)c1 | 1.91%
O=C(N/N=C/c1ccc(N2CCOCC2)s1)c1ccccc1Br | 39.1%
Cc1ccc(CN2CCC(CNC(=O)C3CCCN(c4ncnc5c4nc4n5CCCCC4)C3)CC2)cc1 (stereo not shown) | -45%
CCOc1cccc(C2C(C(=O)c3ccco3)=C(O)C(=O)N2c2nnc(C)s2)c1 (stereo not shown) | -10.7%
O=S(=O)(c1ccccc1)C1CON(Cc2ccccc2)C1c1ccccc1 (stereo not shown) | -0.527%
COc1cc(/C=N/NC(N)=O)ccc1OCC(=O)N1C(C)CCCC1C (stereo not shown) | 11.6%
O=C(CCCCCn1c(=S)[nH]c2ccccc2c1=O)N1CCC2(CC1)OCCO2 | -14.1%
O=C(NCC1CCCO1)C(c1cccs1)N(Cc1cccs1)C(=O)c1ccc(-c2ccccc2)[nH]1 (stereo not shown) | 7.78%

Compound | hERG current change (%, negative = inhibition) at 10uM
COc1ccc(OC)c(C(=O)c2ccc(C(=O)Nc3ccccc3)cc2)c1 | 10.8%
COc1ccc(OC)c(N2C(=O)C(Cl)=C(N3CCCCC3)C2=O)c1 | -6.18%
CC(=O)c1ccc(NC(=S)N2CCN(C(=S)Nc3ccc(C(C)=O)cc3)C(C)C2)cc1 (stereo not shown) | 20.6%
COc1ccc(-n2nc(C(=O)NCC(=O)Nc3ccccn3)c3ccccc3c2=O)cc1 | 10.6%
COC(=O)C1SCC2C(=O)N(Cc3cccc(C)c3)CC(=O)N21 (stereo not shown) | 13.1%
CC(=O)OCCc1c2ccccc2c(CCCN(C)C)c2ccccc12 | -6.73%
O=C(CN1C(=O)c2ccccc2S1(=O)=O)N1CCN(c2ccccc2)CC1 | -6.06%
CC1CCN(c2ccc(NC(=O)c3cccnc3Cl)cc2)CC1 | 7.64%
Cc1cc(C)nc(NC(=O)CCC2CCCC2)c1 | -4.11%
O=C(NNC(=O)C1CCN(Cc2cccc(F)c2)CC1)c1cccs1 | 21.5%
CCOC(=O)C1CCN(C(=O)CCCOc2ccccc2)CC1 | 3.42%
CCOc1ccc(C(C)=O)cc1CN1C(=O)C(=O)N(CC)C1=O | 1.3%
O=C(CNS(=O)(=O)Cc1ccccc1)NCc1ccccc1 | 16.8%
CCN1CCN(CCCNC(=O)CCC(=O)N2CCOc3ccccc32)CC1 | -13%
O=C(CC1C(=O)NCCN1Cc1ccc(F)cc1Cl)NC1CCCCCCC1 (stereo not shown) | -2.53%
CCCN(c1ccc(C(C)C)cc1)S(=O)(=O)c1c(C)[nH]c(=O)[nH]c1=O | -10%
Fc1ccccc1NC(=S)Nn1cnnc1 | 20.2%
Clc1ccc(-c2nc3ccccn3c2CN2CCOCC2)cc1 | -14%
Cc1ccc(C(=O)CSc2n[nH]c(-c3ccco3)n2)cc1C | 0.766%
CCOc1ccc(CCNC(=O)Cn2c(=O)oc3ccccc32)cc1OCC | -8.77%
COc1ccc(N(CC(=O)Nc2cccc(N(C)S(C)(=O)=O)c2)S(C)(=O)=O)cc1OC | 7.44%
CCOC(=O)C1CCN(C(=O)CN(c2ccc(Cl)c(C(F)(F)F)c2)S(C)(=O)=O)CC1 | -29.2%

Compound | hERG current change (%, negative = inhibition) at 10uM
CC(C(=O)OCC(=O)c1ccc(F)cc1)N1C(=O)C2C3C=CC(C3)C2C1=O (stereo not shown) | -15.4%
CCc1ccc(OCCCN=C(C)c2c(O)n(C)c(=O)n(C)c2=O)cc1 | -45.8%
COc1ccccc1Oc1ccc(N/C=C/C(=O)c2ccc(C)o2)cc1 | 9.42%
CCO[C@@H]1OC(C(=O)NCc2nc3ccccc3[nH]2)=C[C@H](c2cn(C(C)=O)c3ccccc23)[C@H]1CCCO | -67.2%
O=C(Nc1nc2cc3c(cc2s1)OCO3)C1CCCCC1 | 12.6%
CCOc1ccccc1NC(=O)CN1CCC(NC(=O)c2ccccc2C)CC1 | -59.4%
O=C(NCCCCNC(=O)c1ccccc1Br)c1ccccc1Br | 0.551%
CC(C)(C)C(=O)Nc1ccc(Sc2ccc([N+](=O)[O-])cc2)cc1 | -14.8%
CCCCCCCC(=O)Nc1cc(C(=O)NCc2ccc(C)cc2)ccc1N1CCC2(CC1)CC(c1ccccc1)=NO2 | 17.2%
CN(C)c1ccc(NC(=O)CSc2nnc(-c3cnccn3)n2C)cc1 | 20.4%
Cc1ccc(C(=O)N(CC(=O)NC2CCCC2)c2ccccc2Cl)s1 | -0.097%
Cc1ccc(C(c2nnnn2Cc2cccs2)N2CCN(Cc3ccc4c(c3)OCO4)CC2)cc1 (stereo not shown) | -75.3%
CC(C)NC(=O)NC(=O)COC(=O)c1ccc(OC(F)(F)F)cc1 | -0.35%
O=C(Nc1cc(C(F)(F)F)ccc1Cl)C(=O)N1CCCCC1 | -18.4%
CCOc1ccc(N2C(=O)NC(=O)/C(=C/c3cnc(SC)nc3)C2=O)cc1 | 33.8%
Cc1ccc(Cn2ncn3c(cc4ccccc43)c2=O)cc1 | 16%
C/C(=N\NC(=O)c1nnn(-c2nonc2N)c1-c1ccccc1)c1ccccc1O | 6.98%
O=C(N/N=C/c1c(O)n(CCC2=CCCCC2)c(=O)[nH]c1=O)c1ccccc1 | 2.52%
COc1cc(O)c(C(CCN2CCCC(C)C2)c2ccc3c(c2)OCO3)c(OC)c1 (stereo not shown) | -77.5%
COCCCn1c(C)c(C(C)=O)cc(NC(=O)c2ccccc2)c1=O | 3.08%
COc1ccc(C=O)cc1OC(=O)C1(C)Cc2ccccc2C(=O)O1 (stereo not shown) | 14.7%
COc1cc(-c2nnc(SCC(=O)Nc3cc(C)on3)n2C)cc(OC)c1O | -5.05%

Compound | hERG current change (%, negative = inhibition) at 10uM
CCn1c(=S)sc2c(=O)n(CC(=O)Nc3ccccc3)c(C)nc21 | 18.7%
C#C[C@]1(O)CC[C@H]2[C@@H]3CCc4cc(O)ccc4[C@H]3CC[C@@]21C | 4.05%
CCO[C@H]1OC(C(N)=O)=C[C@@H](C2CC2)[C@@H]1CCCO | 13.3%
CCc1cc2c(=O)c(-c3nc(C)cs3)coc2cc1O | 4.97%
COc1ccc(N2CC(C(=O)Nc3nccs3)CC2=O)cc1 (stereo not shown) | 3.06%
CC(C)[C@H](N)C(=O)NCC1CCC(C(=O)N[C@@H](Cc2ccccc2)C(=O)O)CC1.Cl (stereo partly shown) | 9.74%
Cc1ccc2c(CN3CC(C)CC(C)C3)cc(=O)oc2c1 (stereo not shown) | -2.89%
Cc1nc2nc(-c3ccccc3)nn2c(C)c1Cl | 1.5%
N#Cc1ccc(CSc2nnc(COc3ccccc3)n2-c2ccccc2)cc1 | -52.3%
CC(NC(=O)c1ccccc1F)c1cccc2ccccc12 (stereo not shown) | -0.358%
COc1ccc(-c2cn3cccnc3n2)cc1F | 12.2%
C=CCSc1nnc(NC(=O)CSc2ccccn2)s1 | 0.442%
Cc1cc(C(=O)OC(C(=O)Nc2cccc(C(F)(F)F)c2)c2ccccc2)c(C)o1 (stereo not shown) | -2.76%
O=S(=O)(Nc1cccc(-c2cn3c(n2)SCC3)c1)c1cccs1 | -22.7%
CSc1nc(-c2ccc(F)cc2)cc(=O)[nH]1 | 11%
CC(C)=CCN1CCN(Cc2ccc(C#CC(C)(C)O)cc2)CC1CCO (stereo not shown) | 16.3%
COc1ccc(CCNC(=O)c2noc(C)c2[N+](=O)[O-])cc1OC | 11%
COc1ccc(Cn2c(-c3ccccc3C)nc3c(c(=O)c4ccccc4n3C)c2=O)cc1 | -0.644%
COc1ccc(NC(=O)CN(c2ccccc2F)S(=O)(=O)c2ccc(C)cc2)cc1 | 10.6%
CCCCSc1nnc(-c2ccccc2N)c(=O)[nH]1 | -13.9%
O=C(NC(=S)Nc1ccccc1Br)C1CCC1 | -30.9%
N=C1c2ccccc2CN1NC(=O)c1ccccc1 | 5.27%
